No constants are given. Whether binding was seen depends on the method and setting. Binding seen in cells or lysates may run through a third protein. Some entries that bind do so weakly or less than the wild type. For some assays here: Tags and fused reporters may be left off the sequences shown.

The chains behind the UniProt entries cited, without tags or fusion partners. Where a name states a change or a piece, a line headed by the entry shows the natural chain unless it says otherwise.
UniProt P08670: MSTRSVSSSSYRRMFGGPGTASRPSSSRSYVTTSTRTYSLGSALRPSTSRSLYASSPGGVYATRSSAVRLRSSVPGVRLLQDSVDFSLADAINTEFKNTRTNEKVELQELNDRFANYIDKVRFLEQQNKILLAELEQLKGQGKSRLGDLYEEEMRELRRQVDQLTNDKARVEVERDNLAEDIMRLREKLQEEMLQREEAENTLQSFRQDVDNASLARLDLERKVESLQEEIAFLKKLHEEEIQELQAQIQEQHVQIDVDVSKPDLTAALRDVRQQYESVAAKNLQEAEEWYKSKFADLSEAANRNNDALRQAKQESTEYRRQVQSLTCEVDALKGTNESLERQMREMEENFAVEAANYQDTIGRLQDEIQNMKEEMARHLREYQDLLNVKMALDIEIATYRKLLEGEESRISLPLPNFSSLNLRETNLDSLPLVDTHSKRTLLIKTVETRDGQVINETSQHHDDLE

Assay [1] concerns the target T1, Flag-RNF208 stably overexpressed in MDA-MB-231 cells (human) (UniProt Q9H0X6).
T1 sequence: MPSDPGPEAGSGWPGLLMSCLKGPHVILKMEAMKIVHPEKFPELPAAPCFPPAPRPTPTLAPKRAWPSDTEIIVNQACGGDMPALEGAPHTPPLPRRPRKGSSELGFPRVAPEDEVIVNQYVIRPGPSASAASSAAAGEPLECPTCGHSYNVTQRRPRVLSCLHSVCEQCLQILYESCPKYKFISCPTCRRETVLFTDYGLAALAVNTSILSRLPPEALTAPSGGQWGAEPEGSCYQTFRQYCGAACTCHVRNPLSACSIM
Nature of the assay: co-IP; RNF208-overexpressing MDA-MB-231 cells with or without MG132; lysates immunoprecipitated with anti-Flag antibody, blotted for phosphorylated Vimentin (S39).

For assay [2], the target named is T2, Myc-RNF208 (RING finger protein 208), wild type (human) (UniProt Q9H0X6).
T2 sequence: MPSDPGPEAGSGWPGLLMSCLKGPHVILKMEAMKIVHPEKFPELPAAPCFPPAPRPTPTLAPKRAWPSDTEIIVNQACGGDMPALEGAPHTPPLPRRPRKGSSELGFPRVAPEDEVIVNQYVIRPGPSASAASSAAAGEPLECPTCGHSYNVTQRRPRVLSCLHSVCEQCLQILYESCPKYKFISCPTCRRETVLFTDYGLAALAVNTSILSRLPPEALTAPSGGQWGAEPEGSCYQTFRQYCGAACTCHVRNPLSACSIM
Nature of the assay: co-IP; 293T cells cotransfected with Myc-RNF208 and Flag-Vimentin, MG132 treatment; lysates immunoprecipitated with anti-Myc antibody.

For assay [3], the target named is T3, RNF208 in Hs578T cells (co-immunoprecipitation) (human) (UniProt Q9H0X6).
T3 sequence: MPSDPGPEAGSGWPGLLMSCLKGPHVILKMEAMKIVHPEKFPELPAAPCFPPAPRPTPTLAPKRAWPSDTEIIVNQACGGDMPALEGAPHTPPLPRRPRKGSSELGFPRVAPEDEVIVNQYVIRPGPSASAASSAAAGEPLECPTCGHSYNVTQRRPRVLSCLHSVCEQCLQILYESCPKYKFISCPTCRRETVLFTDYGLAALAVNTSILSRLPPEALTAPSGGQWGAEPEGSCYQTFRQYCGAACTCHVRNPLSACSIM
Nature of the assay: co-IP; Hs578T cells; called endogenous interaction (Supplementary Fig. 6c); antibodies not told.

The target in assay [4] is Flag-Vimentin, wild type (human) (UniProt P08670). Nature of the assay: co-IP; 293T cells cotransfected with Myc-RNF208 and Flag-Vimentin (wild type or serine mutants), MG132 treatment; lysates immunoprecipitated with anti-Flag antibody.
The target of assay [5] is Flag-Vimentin (S39D) mutant (human) (UniProt P08670). Described as above.
The target of assay [6] is Flag-Vimentin (S83A) mutant (human) (UniProt P08670). The assay is described as above.
Assay [7] concerns the target Flag-Vimentin (S56A) mutant (human) (UniProt P08670). Described as above.
Assay [8] has as its target Flag-Vimentin (S73A) mutant (human) (UniProt P08670). The description is as above.
The target of assay [9] is Flag-Vimentin, wild type (human) (UniProt P08670). Nature of the assay: co-IP; 293T cells cotransfected with wild-type RNF208 or RNF208 mutant (C143A, C167A, C186A) and Flag-Vimentin, MG132 treatment; precipitating antibody not told.

With “Vimentin phosphorylated at the Ser39 residue, endogenous (from UniProt P08670 1-466)”, the binding entry in assay [1] was “binds”.
Take “Flag-Vimentin, wild type (from UniProt P08670 1-466)”: the binding result in [2] is on record as “binds”.
Turning to “Vimentin, endogenous in TNBC cells (from UniProt P08670 1-466)”, the binding entry in assay [3] was “binds”.

B1: Myc-RNF208 (RING finger protein 208), wild type (protein, UniProt Q9H0X6 1-261)
chain: MPSDPGPEAGSGWPGLLMSCLKGPHVILKMEAMKIVHPEKFPELPAAPCFPPAPRPTPTLAPKRAWPSDTEIIVNQACGGDMPALEGAPHTPPLPRRPRKGSSELGFPRVAPEDEVIVNQYVIRPGPSASAASSAAAGEPLECPTCGHSYNVTQRRPRVLSCLHSVCEQCLQILYESCPKYKFISCPTCRRETVLFTDYGLAALAVNTSILSRLPPEALTAPSGGQWGAEPEGSCYQTFRQYCGAACTCHVRNPLSACSIM
As to B1, the binding entry in assay [4], in [5], in assay [6], in assay [7] and in [8] was “binds” in each case.

B2: RNF208 mutant C186A (protein, UniProt Q9H0X6 1-261)
chain: MPSDPGPEAGSGWPGLLMSCLKGPHVILKMEAMKIVHPEKFPELPAAPCFPPAPRPTPTLAPKRAWPSDTEIIVNQACGGDMPALEGAPHTPPLPRRPRKGSSELGFPRVAPEDEVIVNQYVIRPGPSASAASSAAAGEPLECPTCGHSYNVTQRRPRVLSCLHSVCEQCLQILYESCPKYKFISAPTCRRETVLFTDYGLAALAVNTSILSRLPPEALTAPSGGQWGAEPEGSCYQTFRQYCGAACTCHVRNPLSACSIM
On to B2, for which the binding entry in assay [9] is “no binding”.

B3: RNF208 mutant C167A (protein, UniProt Q9H0X6 1-261)
chain: MPSDPGPEAGSGWPGLLMSCLKGPHVILKMEAMKIVHPEKFPELPAAPCFPPAPRPTPTLAPKRAWPSDTEIIVNQACGGDMPALEGAPHTPPLPRRPRKGSSELGFPRVAPEDEVIVNQYVIRPGPSASAASSAAAGEPLECPTCGHSYNVTQRRPRVLSCLHSVAEQCLQILYESCPKYKFISCPTCRRETVLFTDYGLAALAVNTSILSRLPPEALTAPSGGQWGAEPEGSCYQTFRQYCGAACTCHVRNPLSACSIM
B3: in assay [9], the binding result is recorded as “no binding”.

B4: RNF208 mutant C143A (protein, UniProt Q9H0X6 1-261)
chain: MPSDPGPEAGSGWPGLLMSCLKGPHVILKMEAMKIVHPEKFPELPAAPCFPPAPRPTPTLAPKRAWPSDTEIIVNQACGGDMPALEGAPHTPPLPRRPRKGSSELGFPRVAPEDEVIVNQYVIRPGPSASAASSAAAGEPLEAPTCGHSYNVTQRRPRVLSCLHSVCEQCLQILYESCPKYKFISCPTCRRETVLFTDYGLAALAVNTSILSRLPPEALTAPSGGQWGAEPEGSCYQTFRQYCGAACTCHVRNPLSACSIM
B4: the binding entry in assay [9] is given as “no binding”.

These data come from paper PMC6925134.
